The results in this text go back to PubChem BioAssay AID360 (National Center for Advancing Translational Sciences (NCATS), 2006).

In all, about 48,000 compounds went through this assay and about 550 (1.1%) were called active. Another 4% or so got no clear call; they are omitted. Rule as the data show it: active = potency below about 15 µM; inconclusive = mostly about 16 µM to 33 µM; inactive = weaker than that. This is one part of the list.
Potency is read from the fitted curve at half-maximal effect.

In this experiment the target is Lysosomal acid glucosylceramidase (Homo sapiens) (UniProt P04062). The experiment in a line: Glucocerebrosidase.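 Also: the screen sought inhibitors.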 The note with it: purified enzyme, resorufin glucoside fluorescence (screen aimed at inhibitors), 20 min. The gist of the method: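 Normal human glucocerebrosidase (0.2 nM final) was assayed with resorufin β-D-glucopyranoside (30 uM final) in 50mM citric acid/KH2PO4, 10mM sodium taurocholate, 0.01% tween-20, pH 5.9. Compounds were titrated; fluorescence (Ex 548, Em 600) read after 20 min at RT.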
UniProt P04062, sequence (P04062 whole entry, looked up): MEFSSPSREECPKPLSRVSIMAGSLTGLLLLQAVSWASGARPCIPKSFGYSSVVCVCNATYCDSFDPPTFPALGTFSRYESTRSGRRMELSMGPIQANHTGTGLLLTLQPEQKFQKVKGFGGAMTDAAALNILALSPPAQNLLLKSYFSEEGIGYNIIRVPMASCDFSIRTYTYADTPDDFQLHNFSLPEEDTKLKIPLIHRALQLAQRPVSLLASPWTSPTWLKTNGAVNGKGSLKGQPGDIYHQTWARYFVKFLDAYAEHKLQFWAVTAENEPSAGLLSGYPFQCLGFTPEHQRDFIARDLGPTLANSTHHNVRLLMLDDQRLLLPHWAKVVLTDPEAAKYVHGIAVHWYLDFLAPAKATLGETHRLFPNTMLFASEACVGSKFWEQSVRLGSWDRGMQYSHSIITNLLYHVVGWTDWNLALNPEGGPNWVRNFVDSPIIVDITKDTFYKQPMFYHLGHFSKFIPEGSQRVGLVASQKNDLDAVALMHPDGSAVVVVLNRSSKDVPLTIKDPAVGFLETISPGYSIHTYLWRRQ
`COc1ccc(S(=O)(=O)NCC(=O)N(CC(=O)NCC2CCCO2)c2ccccc2C)cc1` (stereo not given): the Potency was inactive: > 76.9 µM.
Turning to `Cc1cccc2cc(COC(=O)COc3ccccc3)c(=O)[nH]c12`, the Potency was inactive: > 76.9 µM.
For the compound `N#Cc1nc(Cc2cccc3ccccc23)oc1N1CCCCC1`, the Potency is inactive: > 76.9 µM.
Then `Cc1ccnc(NC(=O)CCC(=O)N(CC(=O)NC2CCCCC2)CC2CCCO2)c1` (stereo not given), with inactive: > 76.9 µM; and `O=S(=O)(c1cccc(-c2nnc(SCc3ccc(Cl)cc3)o2)c1)N1CCCCC1`, with inactive: > 76.9 µM.
In the case of `CC(=O)c1cccc(NC(=O)N2CCN(S(C)(=O)=O)CC2)c1`, the Potency is inactive: > 76.9 µM.
On to `CCC(C)Oc1cccc(C(=O)Nc2ccccc2N2CCOCC2)c1` (stereo not given), for which the Potency is inactive: > 76.9 µM.
`COc1ccccc1N1CCN(C(CNC(=O)c2ccc3c(c2)OCO3)c2cccnc2)CC1` (stereo not given): the Potency is inactive: > 76.9 µM.
Next, `Cc1nc2cc(F)ccc2n1C1CCN(S(=O)(=O)c2ccccc2)CC1`: inactive: > 76.9 µM.
Consider `CCCCCc1nc2c(=O)n(C)c3ccccc3c2o1`, for which the Potency is inactive: > 76.9 µM.
Turning to `N=C1C(c2nc3ccccc3s2)=C(O)CN1Cc1ccco1`, the Potency is inactive: > 76.9 µM.
Next, `Cc1cc(C)c(NC(=O)CCCN2CCOCC2)c(C)c1`: inactive: > 76.9 µM; `CCOc1cccc2c1OC1(C)CC2NC(=O)N1c1ccc(OC)cc1` (stereo not given): inactive: > 76.9 µM.
Take `COc1ccc(Br)cc1C1SCCN1S(C)(=O)=O` (stereo not given): the Potency is inactive: > 76.9 µM.
As for `N#CC[n+]1cc(-c2ccc(Cl)cc2)n2c1CCC2`, the Potency is inactive: > 76.9 µM.
As to `Cc1ccc(C(=O)N2CCCCCC2)cc1Br`, the Potency was inactive: > 76.9 µM.
Take `S=C(c1ccc(N2CCCC2)cc1)N1CCCCC1`: the Potency is inactive: > 76.9 µM.
`CC1=CC(C)(C)Nc2ccc(C)cc21`: the Potency is inactive: > 76.9 µM.
With `CC1(C)NC(=O)N(CC(O)COC2CCCCC2)C1=O` (stereo not given), the Potency was inactive: > 76.9 µM.
Turning to `COc1cc(CNCc2ccc(OC)c(OC)c2OC)cc(OC)c1`, the Potency was inactive: > 76.9 µM.
In the case of `COc1cc(OC)cc(N(C(=O)c2ccco2)C(C(=O)NC2CCCC2)c2ccc(N(C)C)cc2)c1` (stereo not given), the Potency result is “inactive”.
In the case of `O=C(CSc1nnc(-c2ccc(F)cc2)o1)Nc1ccc(S(=O)(=O)N2CCCCCC2)cc1`, the Potency is inactive: > 76.9 µM.
`COc1ccccc1OC1=NS(=O)(=O)c2ccccc21`: the Potency is inactive: > 76.9 µM.
As for `Cn1c(=O)c2c(nc(N3CCCCC3)n2CCSc2nc3ccccc3s2)n(C)c1=O`, the Potency was inactive: > 76.9 µM.
Next, `CCn1c(SCC(=O)N2CCN(c3ccccc3F)CC2)nnc1-c1ccoc1C`: inactive: > 76.9 µM.
